The text below walks through data of the supplement of paper PMC10037445.

Molecules are shown by their SMILES. Over roughly 2,900 compounds, “IRF Lucia reporter activity, fold change vs agonist alone” has its median near 0.9; the highest 2% begin near 2.8. The list shows a part of the results.

The test system of assay [1] is RAW-Dual. The assay can be described thus: IRF Lucia reporter activity, fold change vs agonist alone; higher = enhanced IRF activity. Conditions: agonist: MPLA (TLR4) […]. The essentials: (§1)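 Supernatant from RAW-Dual macrophages was read after 20 hours for IRF by QuantiLuc luminescence and for NF-κB by QuantiBlue absorbance at 620 nm. The cells (50,000 cells/well in DMEM, 384-well plates, 37 °C, 5% CO2) had received 50 nL of library stock by pin tool and, 1 h later, a PRR agonist. Reporter activity is expressed relative to agonist-alone wells as fold change, and wells were flagged cytotoxic if IncuCyte confluency was under 70% of agonist controls in both mask sets.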

Assay [2] relates to RAW-Dual. Nature of the assay: IRF Lucia reporter activity, fold change vs agonist alone; cytotoxicity flag (confluency mask): cytotoxic (confluency <70% of control); higher = enhanced IRF activity. Put shortly:
as §1

Assay [3] concerns RAW-Dual. The assay can be described thus: IRF Lucia reporter activity, fold change vs agonist alone; cytotoxicity flag (confluency mask): not cytotoxic; higher = enhanced IRF activity. The essentials: as §1
Setting [4] is: library stock concentration (final ~1000-fold dilution): 10 mM, cytotoxicity flag (confluency mask): not cytotoxic.
The mark [5] stands for this setting: library stock concentration (final ~1000-fold dilution): 10 mM, cytotoxicity flag (confluency mask): cytotoxic (confluency <70% of control).
[6] abbreviates: agonist: 3'3'-cGAMP (STING) 10 ug/mL.

On to `CC(NC(=O)c1ncnc(N)c1Cl)c1ncc(C(=O)Nc2cc(C(F)(F)F)c(Cl)cn2)s1` (configuration not stated), for which, in the assay on RAW-Dual [1] (setting [4]), the “IRF Lucia reporter activity” value was 0.914.

For the molecule `CCCCCCCCCCCC1=C(O)C(=O)C=C(O)C1=O`, in the assay with RAW-Dual [1] (setting [5]), the “IRF Lucia reporter activity” value stood at 0.343.

`CCCCCCCCCCCC1=C(O)C(=O)C=C(O)C1=O` (library stock concentration (final ~1000-fold dilution): 10 mM): the figures for the “IRF Lucia reporter activity” value in the assay on RAW-Dual [2] (setting [6]) and in the assay on RAW-Dual [2] (agonist: LPS (TLR4) 0.1 ug/mL) were 0.258 and 0.214, respectively.

As for `CCC1OC(=O)C(C)C(OC2CC(C)(OC)C(O)C(C)O2)C(C)C(OC2OC(C)CC(N(C)C)C2O)C(C)(O)CC(C)C(=O)C(C)C(O)C1(C)O.N#CS` (configuration not stated), in the assay on RAW-Dual [1] (setting [4]), the “IRF Lucia reporter activity” value was 1.15.

`CCC1OC(=O)C(C)C(OC2CC(C)(OC)C(O)C(C)O2)C(C)C(OC2OC(C)CC(N(C)C)C2O)C(C)(O)CC(C)C(=O)C(C)C(O)C1(C)O.N#CS` (configuration not stated) (library stock concentration (final ~1000-fold dilution): 10 mM): the results for the “IRF Lucia reporter activity” value in the assay on RAW-Dual [3] (setting [6]) and with RAW-Dual [3] (agonist: LPS (TLR4) 0.1 ug/mL) were 0.737 and 1.51, respectively.

Regarding `N#CC1CC2CC2N1C(=O)C(N)C12CC3CC(CC(O)(C3)C1)C2` (configuration not stated), the “IRF Lucia reporter activity” value in the assay on RAW-Dual [1] (setting [4]) amounted to 0.878.

For the molecule `N#CC1CC2CC2N1C(=O)C(N)C12CC3CC(CC(O)(C3)C1)C2` (configuration not stated) (library stock concentration (final ~1000-fold dilution): 10 mM), the “IRF Lucia reporter activity” value amounted to 0.977 in the assay on RAW-Dual [3] (setting [6]) and 1.05 in the assay with RAW-Dual [3] (agonist: LPS (TLR4) 0.1 ug/mL).

Consider `O=C(O)CNC(=O)c1nc(Cl)c2ccccc2c1O` (library stock concentration (final ~1000-fold dilution): 10 mM), for which the “IRF Lucia reporter activity” value was determined as 0.934 in the assay on RAW-Dual [3] (setting [6]) and 0.912 in the assay with RAW-Dual [3] (agonist: LPS (TLR4) 0.1 ug/mL).

In the case of `CCOCc1nc2c(N)nc3ccccc3c2n1CC(C)(C)O` (library stock concentration (final ~1000-fold dilution): 3.2 mM), the results for the “IRF Lucia reporter activity” value in the assay with RAW-Dual [3] (setting [6]) and in the assay on RAW-Dual [3] (agonist: LPS (TLR4) 0.1 ug/mL) were 0.759 and 0.422, respectively.

In the case of `Cc1nn(C)c2c1C(c1ccc(C(F)(F)F)cc1)C(C#N)=C(N)O2` (configuration not stated) (library stock concentration (final ~1000-fold dilution): 10 mM), the “IRF Lucia reporter activity” value amounted to 0.682 in the assay on RAW-Dual [3] (setting [6]) and 0.94 in the assay on RAW-Dual [3] (agonist: LPS (TLR4) 0.1 ug/mL).

For `CN1CCCN(C(=O)c2cccc(-c3ccc(/C=C4/C(=O)Nc5ccc(Cl)cc54)o3)c2)CC1.Cl`, in the assay on RAW-Dual [1] (setting [5]), the “IRF Lucia reporter activity” value was 0.0337.

For the molecule `CN1CCCN(C(=O)c2cccc(-c3ccc(/C=C4/C(=O)Nc5ccc(Cl)cc54)o3)c2)CC1.Cl` (library stock concentration (final ~1000-fold dilution): 10 mM), the “IRF Lucia reporter activity” value in the assay on RAW-Dual [2] (setting [6]) worked out at 0.02; with RAW-Dual [2] (agonist: LPS (TLR4) 0.1 ug/mL), 0.0459.

On to `COc1ccc2cc1Oc1ccc(cc1)CC1c3c(cc4c(c3Oc3cc5c(cc3OC)CCN(C)C5C2)OCO4)CCN1C` (configuration not stated) (library stock concentration (final ~1000-fold dilution): 10 mM), for which the “IRF Lucia reporter activity” value in the assay with RAW-Dual [2] (setting [6]) is 0.704; in the assay on RAW-Dual [2] (agonist: LPS (TLR4) 0.1 ug/mL) it was 0.12.

Take `COc1ccc2cc1Oc1ccc(cc1)CC1c3c(cc4c(c3Oc3cc5c(cc3OC)CCN(C)C5C2)OCO4)CCN1C` (configuration not stated): the “IRF Lucia reporter activity” value in the assay on RAW-Dual [1] (setting [5]) was found to be 0.205.

On to `CN(C)CCC=C1c2ccccc2C=Cc2ccccc21.Cl`, for which the “IRF Lucia reporter activity” value in the assay on RAW-Dual [1] (setting [5]) amounted to 1.17.

For `CN(C)CCC=C1c2ccccc2C=Cc2ccccc21.Cl` (library stock concentration (final ~1000-fold dilution): 10 mM), the results for the “IRF Lucia reporter activity” value in the assay with RAW-Dual [2] (setting [6]) and in the assay on RAW-Dual [2] (agonist: LPS (TLR4) 0.1 ug/mL) were 0.475 and 1.69, respectively.

As for `CC(=O)c1ccc2c(c1)c1cc(C(C)=O)ccc1n2CCNC(C)C.Cl` (library stock concentration (final ~1000-fold dilution): 10 mM), the “IRF Lucia reporter activity” value in the assay with RAW-Dual [2] (setting [6]) was 0.00914; in the assay with RAW-Dual [2] (agonist: LPS (TLR4) 0.1 ug/mL) it was 0.0119.

With `Cc1cc(-c2ccc(CC(=O)Nc3ccc(-c4cccnc4)cc3)cc2)ccn1` (library stock concentration (final ~1000-fold dilution): 10 mM), the “IRF Lucia reporter activity” value in the assay with RAW-Dual [3] (setting [6]) amounted to 0.6; in the assay on RAW-Dual [3] (agonist: LPS (TLR4) 0.1 ug/mL), 0.636.

Turning to `Cc1cc(-c2ccc(CC(=O)Nc3ccc(-c4cccnc4)cc3)cc2)ccn1`, the “IRF Lucia reporter activity” value in the assay on RAW-Dual [1] (setting [4]) was 0.665.

Consider `COc1ccc(C2CC(c3ccccc3)=NN2c2ccc(S(N)(=O)=O)cc2)cc1` (configuration not stated) (library stock concentration (final ~1000-fold dilution): 10 mM), for which the “IRF Lucia reporter activity” value in the assay on RAW-Dual [3] (setting [6]) was determined as 1.13; in the assay with RAW-Dual [3] (agonist: LPS (TLR4) 0.1 ug/mL), 0.969.

Take `O=C(NC1=CC(=O)[C@H]2O[C@H]2[C@H]1O)c1ccccc1O` (library stock concentration (final ~1000-fold dilution): 10 mM): the “IRF Lucia reporter activity” value in the assay with RAW-Dual [3] (setting [6]) came to 0.069; with RAW-Dual [3] (agonist: LPS (TLR4) 0.1 ug/mL) it was 0.415.

In the case of `CCCC(=O)[O-].[Na+]`, the “IRF Lucia reporter activity” value in the assay with RAW-Dual [1] (library stock concentration (final ~1000-fold dilution): 10 mM water, cytotoxicity flag (confluency mask): not cytotoxic) came out at 1.27.

Take `CCCC(=O)[O-].[Na+]` (library stock concentration (final ~1000-fold dilution): 10 mM water): the figures for the “IRF Lucia reporter activity” value in the assay on RAW-Dual [3] (setting [6]) and in the assay on RAW-Dual [3] (agonist: LPS (TLR4) 0.1 ug/mL) were 1.12 and 0.83, respectively.

Take `COCCOc1ccc2c(c1)ncn2-c1ccc2cccc(N3CCC(N)CC3)c2n1` (library stock concentration (final ~1000-fold dilution): 10 mM): the “IRF Lucia reporter activity” value in the assay with RAW-Dual [2] (setting [6]) turned out to be 0.0214; in the assay on RAW-Dual [2] (agonist: LPS (TLR4) 0.1 ug/mL) it was 0.0272.

On to `COCCOc1ccc2c(c1)ncn2-c1ccc2cccc(N3CCC(N)CC3)c2n1`, for which the “IRF Lucia reporter activity” value in the assay with RAW-Dual [1] (setting [5]) was determined as 0.0201.

For the molecule `CCCS(=O)(=O)NC1CC(N(C)c2ncnc3[nH]ccc23)C1` (configuration not stated) (library stock concentration (final ~1000-fold dilution): 10 mM), the “IRF Lucia reporter activity” value is 0.331 in the assay with RAW-Dual [3] (setting [6]) and 0.508 in the assay on RAW-Dual [3] (agonist: LPS (TLR4) 0.1 ug/mL).
